# Source: publication PMC7819943, “Rice protein-binding microarrays: a tool to detect cis-acting elements near promoter regions in rice”
# The other results are listed elsewhere or left out.
# Target: T1, OsWOX13 (Oryza sativa, UniProt Q5QMM3 1-267)
# T1 sequence: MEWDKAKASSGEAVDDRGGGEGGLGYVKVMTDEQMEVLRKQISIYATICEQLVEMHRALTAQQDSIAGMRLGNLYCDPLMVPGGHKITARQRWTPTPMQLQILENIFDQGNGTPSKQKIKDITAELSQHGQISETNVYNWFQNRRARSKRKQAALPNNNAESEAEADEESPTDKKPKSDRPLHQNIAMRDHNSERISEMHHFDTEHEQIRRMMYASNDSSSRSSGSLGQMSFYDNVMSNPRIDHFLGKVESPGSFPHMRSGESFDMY
# Test: protein-binding microarray (RPBM); PBS, 2% BSA, 51.3 ng/ul salmon testes DNA, 50 uM zinc acetate, 200 nM TF, 25 C, 1 h; high values mean tight binding
# Conditions: protein: recombinant; tags: N-terminal polyhistidine and DsRed monomer fusion (pET32a); label: CyDye5-dUTP incorporated in the synthesized complementary strand; 3' TTTTT single-stranded linker to array surface; dsDNA, one strand shown
# Summary of the method: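 Ni–NTA purification followed expression in E. coli BL21-CodonPlus of transcription factors fused N-terminally to a polyhistidine tag and DsRed. At 200 nM in PBS with 2% BSA, salmon testes DNA and 50 µM zinc acetate, the protein was incubated for 1 h at 25 °C with a custom Agilent array that had been primer-extended with Cy5-dUTP and blocked with 2% BSA. After washing, the array was read on an Axon 4000B scanner. The binding signal is per-feature fluorescence intensity in arbitrary units.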
row,Sequence,binding signal
1,CATTGATAGTTTGGTGGGATTAGGATGGGAATCAATTGATCGGAGTCACCTAGTGCAG,13900 fluorescence intensity (a.u.)
2,ACAAAATTGGAGCGCTCATAATTTTACTGCAAGAAACCAGCGGAGTCACCTAGTGCAG,6130 fluorescence intensity (a.u.)
3,CACTCATTGATTTGTCAGCTGCCCCATGTCGGCCGAGGTTCGGAGTCACCTAGTGCAG,28600 fluorescence intensity (a.u.)
4,ATAGATAGATTTTAGAATCCCAAAACTCTCTTGTCGTCCTCGGAGTCACCTAGTGCAG,15600 fluorescence intensity (a.u.)
5,TAGTCAATTTAATAGTCAATTCATACTACACTATTAATATCGGAGTCACCTAGTGCAG,16500 fluorescence intensity (a.u.)
6,CGCGTGACAGTGCGAGTGATGATTAGAAAAGTAAAATCCGCGGAGTCACCTAGTGCAG,12400 fluorescence intensity (a.u.)
7,TTATGTAATTATTATTTATTTTATTGTGACTTAATTTATCCGGAGTCACCTAGTGCAG,15500 fluorescence intensity (a.u.)
8,ATTATTGATAGTCCAGTAACTTGGGTATGTGGGGAAGTGGCGGAGTCACCTAGTGCAG,23600 fluorescence intensity (a.u.)
9,GTGACGTCACCATTTTCATTTAATTAGAGTTGGCCGGAGACGGAGTCACCTAGTGCAG,3870 fluorescence intensity (a.u.)
10,TTGCGTTGTCGATTTATCAATCAATTGCTCAGATGCTAATCGGAGTCACCTAGTGCAG,17600 fluorescence intensity (a.u.)
11,CAAATTATCAGAAAACTACAGATTTAACATGATGTATTATCGGAGTCACCTAGTGCAG,3480 fluorescence intensity (a.u.)
12,GTACAGGCTTAATTGGGTCCTTTCTTGGTGTCACAATCTGCGGAGTCACCTAGTGCAG,7460 fluorescence intensity (a.u.)
13,ATTGTTAAATCAAGACGTAATTAGGCTCAAAAGATTTGTCCGGAGTCACCTAGTGCAG,13300 fluorescence intensity (a.u.)
14,TTATTATTATCAATTAACCCCATATCATTGGGATTGGGAGCGGAGTCACCTAGTGCAG,32600 fluorescence intensity (a.u.)
15,AGTAATTGATTAATTTTGTGACAGAGGTGGTCACTATATGCGGAGTCACCTAGTGCAG,61000 fluorescence intensity (a.u.)
16,TCCTCTTTGCTTGATTTGCTTCCGCTGCTGCTGTTAGGTGCGGAGTCACCTAGTGCAG,3950 fluorescence intensity (a.u.)
17,ACACCGATTGATCACTAGTGTGCTATGTAAGCTCCTACTCCGGAGTCACCTAGTGCAG,7130 fluorescence intensity (a.u.)
18,CTGTGTGTAATTTATCTACTTTTATTAGATTAAGATATGCCGGAGTCACCTAGTGCAG,10100 fluorescence intensity (a.u.)
19,ATAAAATTGTGTGGTATGGTAAATTGGTAATCCTTATCCTCGGAGTCACCTAGTGCAG,4750 fluorescence intensity (a.u.)
20,AATTATCATCACAAATGACATGATTGATGCTACCTTTAGTCGGAGTCACCTAGTGCAG,18000 fluorescence intensity (a.u.)
21,TATGATTATGACTCTGATATAGTGATATATCTCACCCAATCGGAGTCACCTAGTGCAG,39900 fluorescence intensity (a.u.)
22,TCTCCCGCTGACTGACACCTCAAAACCGGCCGTCCCACGACGGAGTCACCTAGTGCAG,3920 fluorescence intensity (a.u.)
23,GTATTCTATTAATTCTATTAAACTCTAGGCCGGGATGTTACGGAGTCACCTAGTGCAG,4250 fluorescence intensity (a.u.)
24,ATAATTGTTCTTGTATCTCACTCACTCACTCACTCAATTGCGGAGTCACCTAGTGCAG,4460 fluorescence intensity (a.u.)
25,CTGATTAAGATCACTAATTGATCTGTCCACATTGCATCCTCGGAGTCACCTAGTGCAG,54800 fluorescence intensity (a.u.)
26,ACCCAATTAAGTTAAGCGTTTGATCGATGTGCGGTGTCTGCGGAGTCACCTAGTGCAG,11500 fluorescence intensity (a.u.)
27,GATGCAAATCAAAAGGACAAGATTATCCATATTATAGGTACGGAGTCACCTAGTGCAG,3420 fluorescence intensity (a.u.)

row,Sequence,binding signal
1,TGGGTTGATTTTACCTATTTTAGTAGTTTAGATTGGTAGTCGGAGTCACCTAGTGCAG,7660 fluorescence intensity (a.u.)
2,GTTAATTATAGATATATACTGCATCATTAATACCTAATATCGGAGTCACCTAGTGCAG,28900 fluorescence intensity (a.u.)
3,TACTTCACTAATTAAGCTCTAATAAGAAGCCCTGGCTGCTCGGAGTCACCTAGTGCAG,5570 fluorescence intensity (a.u.)
4,TTGATTTGTTACGTGTATATAATGGTTTGTTAAATTTGAACGGAGTCACCTAGTGCAG,14400 fluorescence intensity (a.u.)
5,AATAATACTGTAATAATTATATCTCTCAAGGCGTACGTGACGGAGTCACCTAGTGCAG,4000 fluorescence intensity (a.u.)
6,CAACATCTCCTCCAATCAGCAGCAGCAGCAGCAGAGCTGACGGAGTCACCTAGTGCAG,3280 fluorescence intensity (a.u.)
7,CCAAGTTAATTAGACAACCAGCTCACGTAACGGGACACTGCGGAGTCACCTAGTGCAG,30900 fluorescence intensity (a.u.)
8,AGCTAATGAATGATTTTCACTTGACCAGTACATCCAACATCGGAGTCACCTAGTGCAG,23200 fluorescence intensity (a.u.)
9,GTTGTACCACTGATTGGACTGCCTGCTTACCGATAATTAACGGAGTCACCTAGTGCAG,24500 fluorescence intensity (a.u.)
10,CTTAATTTCCTTTCATAAGTTCACTACCTAAATATATAAGCGGAGTCACCTAGTGCAG,7470 fluorescence intensity (a.u.)
11,GTTATATAATGATTTGTAATTAATTTAATCTGAATACTGACGGAGTCACCTAGTGCAG,38200 fluorescence intensity (a.u.)
12,TATATTCAATTATTAATTTGATGAAACTAATTTAGTATTACGGAGTCACCTAGTGCAG,12800 fluorescence intensity (a.u.)
13,AAGAGGGAATTATCTAAATTTATTGCATGTCCATATTCACCGGAGTCACCTAGTGCAG,7050 fluorescence intensity (a.u.)
14,TATCATCACTACACATAATTATATAATATAGTAGTGCATACGGAGTCACCTAGTGCAG,3530 fluorescence intensity (a.u.)
15,ATTGATTTGATGAAACTAATTTAATATTATAAATATTATTCGGAGTCACCTAGTGCAG,26000 fluorescence intensity (a.u.)
16,TAATTAGCTTATTACCGTCAATCTTGAATAATTTGAGAGCCGGAGTCACCTAGTGCAG,5640 fluorescence intensity (a.u.)
17,TTTGATTTGGATCTTTTCTATAATGTTGCCGAATTGGCCACGGAGTCACCTAGTGCAG,17200 fluorescence intensity (a.u.)
18,GTGCTAATCAGTTGGCATAATAATCCAGAGAGTTGCACGACGGAGTCACCTAGTGCAG,7820 fluorescence intensity (a.u.)
19,TTAGGCCTAATTAATCCGTCATTAGCAAATGTTTACTATACGGAGTCACCTAGTGCAG,10400 fluorescence intensity (a.u.)
20,TAAACCCAATTAATTCGTCATTAGCAAATGTTTACTGTAGCGGAGTCACCTAGTGCAG,10800 fluorescence intensity (a.u.)
21,GAAATTTTCTGTCACATGATATATAGATAATCCATTAAGACGGAGTCACCTAGTGCAG,5100 fluorescence intensity (a.u.)
22,GCTTGATATACTATTTTCATGATGTGGTTCTTTTAAATTCCGGAGTCACCTAGTGCAG,4660 fluorescence intensity (a.u.)
23,GTTGCTAAATTTTAGTTATTACTGTGCAGTTGCCAAATTTCGGAGTCACCTAGTGCAG,4010 fluorescence intensity (a.u.)
24,CAAACGGGTAATTAACTGGGATTAATTTGCCATAAGCCGACGGAGTCACCTAGTGCAG,53100 fluorescence intensity (a.u.)
25,ATAATATATGATTAATTAAGTTTTAATTATTACAAACTTGCGGAGTCACCTAGTGCAG,37000 fluorescence intensity (a.u.)
26,GCCATCTAATCAATACATACAGCAAGTCATATAACATGTGCGGAGTCACCTAGTGCAG,8330 fluorescence intensity (a.u.)
27,TTGTTAATTTCCAGCGCTGCGAGCCTGCACGAACTCACGTCGGAGTCACCTAGTGCAG,4680 fluorescence intensity (a.u.)
